# Experimental data as given in PubChem BioAssay AID886 (National Center for Advancing Translational Sciences (NCATS), 2007).
# The campaign covered roughly 73,000 compounds. About 2,500 (3.4%) were called active. The inconclusive results got no clear call from the source; some entries with a clear call stand among them for comparison. The call rests on the fitted dose curve; in most records, active means well fitted inhibition curve with a large enough effect; inconclusive means small, poorly fitted or top-dose-only effect; inactive means no such curve, though single readings can be large or run the other way. A potency beside an inconclusive call is a rough fit, not a confirmed value.
# Biological target: 3-hydroxyacyl-CoA dehydrogenase type-2 (Homo sapiens) (UniProt Q99714)
# UniProt Q99714, sequence (Q99714 whole entry, looked up): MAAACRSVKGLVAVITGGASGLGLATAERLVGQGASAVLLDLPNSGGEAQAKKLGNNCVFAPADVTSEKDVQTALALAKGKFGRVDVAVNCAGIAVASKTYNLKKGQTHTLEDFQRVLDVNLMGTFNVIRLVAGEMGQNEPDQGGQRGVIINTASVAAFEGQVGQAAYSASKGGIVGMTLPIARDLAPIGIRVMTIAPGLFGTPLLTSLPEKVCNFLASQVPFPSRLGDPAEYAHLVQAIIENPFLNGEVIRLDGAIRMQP
# UniProt Q99714, sequence (Q99714 whole entry, looked up): as above
# Experiment: qHTS Assay for Inhibitors of HADH2 (Hydroxyacyl-Coenzyme A Dehydrogenase, Type II); further: nearly all actives have a fitted effect of over 60% in size
# Details: recombinant HADH2, NADH fluorescence, beta-hydroxybutyryl-CoA; series mostly up to 57.1 µM
# How it was run: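 Activity measured as NADH fluorescence gain (360/450 nm), taken as the change between first and last reads of a 4-min kinetic run. Conditions: pH 9.0 Tris buffer, 20 nM E. coli-expressed His-tagged enzyme, 1 mM NAD+, 90 uM beta-hydroxybutyryl-CoA; 15-min compound preincubation.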
# Potency means the concentration at half of the fitted maximal effect; tags describe the fitted curve by direction and shape.
row,SMILES,Potency
1,CCC(C)Sc1nc2c(cnn2-c2ccc(C)cc2)c(=O)[nH]1 (stereo unspecified),inactive
2,Cc1noc(NS(=O)(=O)c2ccc(NC(=O)CSc3nc4c(cc3C#N)CCC4)cc2)c1C,"inconclusive: 7.94 µM [inhibitor, partial curve]"
3,CCC(C)Sc1nc2c(c(=O)[nH]c(=O)n2C)n1CC(O)COc1cccc2ccccc12 (stereo unspecified),"inconclusive: 12.6 µM [inhibitor, partial curve]"
4,Cc1cc2c(C)cc(=O)oc2c2c1NCCC2,active: 3.16 µM
5,CCOC(=O)c1sc2nc(N3CCOCC3)c3c(c2c1N)CCCC3,active: 3.16 µM
6,O=C(CSc1nnc(-c2ccccc2Br)o1)Nc1cccc2ccccc12,inactive
7,N#Cc1c(C(F)(F)F)cc(-c2ccco2)nc1SCc1ccncc1,active: 25.1 µM
8,CCc1ccc(OCC(=O)Nc2ccc(-c3nc4ccccc4o3)c(O)c2)cc1,"inconclusive: 3.98 µM [inhibitor, full curve]"
9,COCCN(CCOC)c1nc(C)nc2c1nc(-c1ccccc1)n2CCN(C)C,"inconclusive: 39.8 µM [inhibitor, single point]"
10,Clc1ccccc1OCc1nn2c(-c3ccncc3)nnc2s1,"inconclusive: 31.6 µM [inhibitor, single point]"
11,Cc1cnc(CNc2ncncc2-c2cccnc2)cn1,"inconclusive: 39.8 µM [inhibitor, single point]"
12,c1ccc(-c2cnnc(SCc3cn4cccnc4n3)n2)cc1,"inconclusive: 31.6 µM [inhibitor, single point]"
13,COc1ccc(NC(=O)N2CC[C@@]3(CCCN(C(=O)c4cnccn4)C3)C2)cc1,inactive
14,CCN(CC)CCCCn1c(-c2ccccc2)nc2c(NC3CCCCC3)nc(C)nc21,"inconclusive: 39.8 µM [inhibitor, single point]"
15,CC(=O)Nc1c(Cl)n(C(C)=O)c2ccccc12,inactive
16,CC1CC(C)CN(C(=O)CCCn2c(=S)[nH]c3ccccc3c2=O)C1 (stereo unspecified),"inconclusive: 25.1 µM [inhibitor, single point]"
17,C[C@@H](CN(C)C)CN1c2ccccc2CCc2ccccc21,"inconclusive: 1 µM [inhibitor, single point]"
18,CCCCN1CSC(=S)N(Cc2ccccc2)C1,"inconclusive: 3.98 µM [inhibitor, single point]"
19,C=CCc1c(C)c(C#N)c2nc3ccccc3n2c1NCCN(C)C,inactive
20,CCn1c2ccccc2c2nnc(SCC(=O)NCCOC)nc21,inactive
21,COc1cccc(C(=O)N2CCSC2=S)c1,"inconclusive: 31.6 µM [inhibitor, single point]"
